In PubChem BioAssay (Tox21):
Values joined by “and” are separate entries in the source; they are usually repeats but may differ in a detail not shown here. Equal entries are not always repeated. Inconclusive results, whose numbers are uncertain, are shown with a selection of clear calls. Potencies of inconclusive entries are left out as doubtful fits. Active and inactive are the calls of the source. Unless noted, the call rests on the fitted dose curve; in most records, active means well fitted cell-killing curve with a large enough effect in the repeat runs (not every such curve was filed as active); inconclusive means weak or mixed curves, or effect the other way; inactive means no such curve, though single readings can be large or run the other way.
On the % scale 0 is the no-effect control and ±100 the full control effect; potency means the concentration at half of the fitted maximal effect; tags describe the fitted curve by direction and shape or compound fluorescence and quenching.

System: not listed separately
Test: qHTS assay to identify small molecule antagonists of the farnesoid-X-receptor (FXR) signaling pathway - cell viability counter screen (AID 743221); further: nearly all actives have a fitted effect of over 50% in size
Conditions: FXR-bla HEK293T viability, CellTiter-Glo luminescence, 16 h; activity change, negative = cytotoxicity: at 62.6 µM (top of the series) unless noted
Outline: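 Cytotoxicity is taken from ATP luminescence (CellTiter-Glo, 30 min, room temperature) in FXR-bla HEK 293T cells previously incubated 16 h at 37 C with compound and chenodeoxycholic acid at 50 uM final.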
For `CN(C)CCOC(c1ccccc1)c1ccccc1`, the Potency was inconclusive [falling, full curve, poor fit]. With `NC(N)=NC(=O)Cc1c(Cl)cccc1Cl` the “activity change, negative = cytotoxicity” value was inactive: -4.46%. In the case of `CCC(C)N` (configuration not stated), the Potency is reported as inconclusive [falling, full curve, poor fit]. With `Cn1cc[nH]c1=S` the Potency was “inactive”. With `O=C(O)[C@H](O)[C@@H](O)[C@H](O)[C@H](O)CO` the Potency was inconclusive [falling, single point]. With `O=C(c1ccc(O)cc1)c1ccc(O)c(O)c1O` the Potency was inconclusive [falling, single point].

Biological target: Vitamin D3 receptor (Homo sapiens) (UniProt P11473)
UniProt P11473, sequence (P11473 whole entry, looked up): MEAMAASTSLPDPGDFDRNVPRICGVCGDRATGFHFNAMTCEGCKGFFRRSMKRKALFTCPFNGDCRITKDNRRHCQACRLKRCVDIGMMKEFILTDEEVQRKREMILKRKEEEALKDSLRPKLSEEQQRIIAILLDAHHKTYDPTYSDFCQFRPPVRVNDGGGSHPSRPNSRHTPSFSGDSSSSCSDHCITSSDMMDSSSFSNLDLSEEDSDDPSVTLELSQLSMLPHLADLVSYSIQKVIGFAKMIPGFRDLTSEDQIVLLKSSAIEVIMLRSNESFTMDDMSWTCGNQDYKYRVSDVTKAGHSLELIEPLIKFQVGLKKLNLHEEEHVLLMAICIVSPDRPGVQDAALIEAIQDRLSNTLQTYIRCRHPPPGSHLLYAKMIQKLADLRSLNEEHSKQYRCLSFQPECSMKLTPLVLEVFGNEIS
Test: qHTS assay to identify small molecule agonists of the vitamin D receptor (VDR) signaling pathway (AID 743222; calls by dose curve)
Conditions: HEK293T VDR-UAS-bla, beta-lactamase FRET ratio, 16 h; activation: at 63.5 µM (top of the series) unless noted
Outline: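 Cells carrying a VDR-driven beta-lactamase reporter are seeded at 2,000 per well and rested 4 h. Compounds in DMSO are added for 16 h at 37C, and FRET substrate fluorescence is measured after 2 h at room temperature.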
With `Cc1nc2sccn2c(=O)c1CCN1CCC(=C(c2ccc(F)cc2)c2ccc(F)cc2)CC1` the Potency was inconclusive. With `Cn1cc[nH]c1=S` the activation was inconclusive: -11.2% and inconclusive: -1.28%. For `CC/C=C\CCOC(C)OCC` (configuration not stated), the Potency was inconclusive [fluorescent, single point]. With `F[B-](F)(F)F` the Potency was “inactive”.

Biological target: Vitamin D3 receptor (Homo sapiens) (UniProt P11473)
Test: qHTS assay to identify small molecule antagonists of the vitamin D receptor (VDR) signaling pathway (AID 743223; active means well fitted inhibition curve with a large enough effect in the signal ratio in the repeat runs, not every such curve was filed as active; inconclusive means weak or mixed curves, or effect the other way; inactive means no such curve, though single readings can be large or run the other way; the % refers to the signal ratio)
Conditions: VDR-UAS-bla HEK293T, beta-lactamase FRET ratio, 16 h; activity change, negative = inhibition: at 61 µM (top of the series) unless noted
Outline: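 Quantitative HTS in VDR-bla reporter cells stimulated with 1alpha,25-dihydroxyvitamin D3, 3 nM final. Compound exposure 16 h, 37C, 5% CO2. Read-out: beta-lactamase FRET substrate fluorescence, 2 h RT.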
For `CC(C)=CCCC(C)CCOC=O` (configuration not stated), the activity change, negative = inhibition was inconclusive: 8.12%. For `CCCCCCCCOCCCN`, the activity change, negative = inhibition was inconclusive: -25.1%. In the case of `CC(C)c1ccc2c(C(C)C)cc(C(C)C)c(S(=O)(=O)O)c2c1`, the Potency is reported as inconclusive [fluorescent, partial curve, poor fit]. With `NC(N)=NC(=O)Cc1c(Cl)cccc1Cl` the “activity change, negative = inhibition” value was inactive: 6.06%. For `Cc1nc2sccn2c(=O)c1CCN1CCC(=C(c2ccc(F)cc2)c2ccc(F)cc2)CC1`, the Potency was inconclusive [fluorescent]. For `CCCN1C=CN(C)C1`, the Potency was “inactive”. For `CC(=O)NS(=O)(=O)c1ccc(N)cc1`, the activity change, negative = inhibition was inconclusive: 18.4%. For `F[B-](F)(F)F`, the Potency was “inactive”. With `O=C(C1CCCCC1)N1CC(=O)N2CCc3ccccc3C2C1` (configuration not stated) the activity change, negative = inhibition was inconclusive: -5.7% and inconclusive: 1.85%. For `CCCCCCCCCCCCCCCCOS(=O)(=O)O`, the “activity change, negative = inhibition” value was inactive: 9.05%.

System: not listed separately
Test: qHTS assay to identify small molecule agonists of the vitamin D receptor (VDR) signaling pathway - cell viability counter screen (AID 743224; active means well fitted cell-killing curve with a large enough effect in the repeat runs; inconclusive means weak or mixed curves, or effect the other way; inactive means no such curve, though single readings can be large or run the other way; further: nearly all actives have a fitted effect of over 50% in size)
Conditions: VDR-bla HEK293T viability, CellTiter-Glo luminescence, 16 h; activity change, negative = cytotoxicity: at 62.6 µM (top of the series)
Outline: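 Cells: VDR-bla, 2,000/well, settled 4 h. Treatment: compounds in DMSO, 16 h, 37C/5% CO2. Readout: CellTiter-Glo luminescence after 30 min RT.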
With `CC(C)=CCCC(C)CCOC=O` (configuration not stated) the Potency was inconclusive [cytotoxic, single point]. With `CN(C)CCOC(c1ccccc1)c1ccccc1` the Potency was inconclusive [cytotoxic, single point]. With `CCCCCCCCOCCCN` the Potency was inconclusive [cytotoxic, partial curve]. With `CCCCCCOc1ccc(N)cc1` the Potency was inconclusive [cytotoxic, single point]. For `O=C(O)[C@H](O)[C@@H](O)[C@H](O)[C@H](O)CO`, the Potency was “inactive”. With `CC(=O)NS(=O)(=O)c1ccc(N)cc1` the Potency was inconclusive [cytotoxic, single point]. With `CCCCCCCCCCCCCCCCOS(=O)(=O)O` the Potency was inconclusive [cytotoxic, single point].
